# According to the supplement of paper PMC8728848:
# The list shows a part of the results.
# B1: RS-IIL (Ralstonia solanacearum) (protein)
# chain: AQQGVFTLPANTSFGVTAFANAANTQTIQVLVDNVVKATFTGSGTSDKLLGSQVLNSGSGAIKIQVSVNGKPSDLVSNQTILANKLNFAMVGSEDGTDNDYNDGIAVLNWPLG
# What was measured:
# Test in all cases: glycan array binding signal (z-score within array); higher = stronger binding
# Conditions in all cases: glycan notation: IUPAC condensed, linker removed
# Fuc(a1-2)Gal = biological target: Fuc(a1-2)Gal
# Method in brief: (§1)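 Glycan array binding is given as a within-array Z-score, which can be read as non-binding when negative. The arrays, 3228 of them, came from the Consortium for Functional Glycomics database and were retained only where the protein sequence was available. Z-scores were averaged across arrays of the same protein sequence at different concentrations or buffers and across linkers.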
# Fuc(a1-2)Gal(b1-3)GalNAc = biological target: Fuc(a1-2)Gal(b1-3)GalNAc
# Method in brief: as §1
# [1] = biological target: Fuc(a1-2)Gal(b1-3)GalNAc(b1-3)Gal
# Method in brief: as §1
# [2] = biological target: Fuc(a1-2)Gal(b1-3)GalNAc(b1-3)Gal(a1-4)Gal(b1-4)Glc
# Method in brief: as §1
# [3] = biological target: Fuc(a1-2)Gal(b1-3)GalNAc(b1-4)[Neu5Ac(a2-3)]Gal(b1-4)Glc
# Method in brief: as §1
# Fuc(a1-2)Gal(b1-3)GlcNAc = biological target: Fuc(a1-2)Gal(b1-3)GlcNAc
# Method in brief: as §1
# [4] = biological target: Fuc(a1-2)Gal(b1-3)GlcNAc(b1-3)Gal(b1-4)Glc
# Method in brief: as §1
# [5] = biological target: Fuc(a1-2)Gal(b1-3)[Fuc(a1-4)]GlcNAc
# Method in brief: as §1
# Fuc(a1-2)Gal(b1-4)Glc = biological target: Fuc(a1-2)Gal(b1-4)Glc
# Method in brief: as §1
# Fuc(a1-2)Gal(b1-4)GlcNAc = biological target: Fuc(a1-2)Gal(b1-4)GlcNAc
# Method in brief: as §1
# [6] = biological target: Fuc(a1-2)Gal(b1-4)GlcNAc(b1-3)Gal(b1-4)GlcNAc
# Method in brief: as §1
# [7] = biological target: Fuc(a1-2)Gal(b1-4)GlcNAc(b1-3)Gal(b1-4)GlcNAc(b1-3)Gal(b1-4)GlcNAc
# Method in brief: as §1
# [8] = biological target: Fuc(a1-2)Gal(b1-4)[Fuc(a1-3)]GlcNAc
# Method in brief: as §1
# [9] = biological target: Fuc(a1-2)Gal(b1-4)[Fuc(a1-3)]GlcNAc(b1-3)Gal(b1-4)[Fuc(a1-3)]GlcNAc
# Method in brief: as §1
# [10] = biological target: Fuc(a1-2)Gal(b1-4)[Fuc(a1-3)]GlcNAc(b1-3)Gal(b1-4)[Fuc(a1-3)]GlcNAc(b1-3)Gal(b1-4)[Fuc(a1-3)]GlcNAc
# Method in brief: as §1
# Fuc(a1-2)GlcNAc = biological target: Fuc(a1-2)GlcNAc
# Method in brief: as §1
# Fuc(a1-2)[Gal(a1-3)]Gal = biological target: Fuc(a1-2)[Gal(a1-3)]Gal
# Method in brief: as §1
# [11] = biological target: Fuc(a1-2)[Gal(a1-3)]Gal(b1-3)GlcNAc
# Method in brief: as §1
# [12] = biological target: Fuc(a1-2)[Gal(a1-3)]Gal(b1-4)Glc
# Method in brief: as §1
# [13] = biological target: Fuc(a1-2)[Gal(a1-3)]Gal(b1-4)GlcNAc
# Method in brief: as §1
# [14] = biological target: Fuc(a1-2)[Gal(a1-3)]Gal(b1-4)[Fuc(a1-3)]GlcNAc
# Method in brief: as §1
# [15] = biological target: Fuc(a1-2)[Gal(a1-4)]Gal(b1-4)GlcNAc
# Method in brief: as §1
# [16] = biological target: Fuc(a1-2)[GalNAc(a1-3)]Gal
# Method in brief: as §1
# [17] = biological target: Fuc(a1-2)[GalNAc(a1-3)]Gal(b1-3)GlcNAc
# Method in brief: as §1
# [18] = biological target: Fuc(a1-2)[GalNAc(a1-3)]Gal(b1-4)Glc
# Method in brief: as §1
# [19] = biological target: Fuc(a1-2)[GalNAc(a1-3)]Gal(b1-4)GlcNAc
# Method in brief: as §1
# [20] = biological target: Fuc(a1-2)[GalNAc(a1-3)]Gal(b1-4)[Fuc(a1-3)]GlcNAc
# Method in brief: as §1
# [21] = biological target: Fuc(a1-2)[GalNAc(a1-4)]Gal(b1-4)GlcNAc
# Method in brief: as §1
# [22] = biological target: Fuc(a1-2)[GalNAc(b1-3)]Gal
# Method in brief: as §1
# Fuc(a1-3)GlcNAc = biological target: Fuc(a1-3)GlcNAc
# Method in brief: as §1
binder,measurement,setting,value
B1,glycan array binding signal (z-score),Fuc(a1-2)Gal,1.07
same,glycan array binding signal (z-score),Fuc(a1-2)Gal(b1-3)GalNAc,0.268
same,glycan array binding signal (z-score),[1],-0.324
same,glycan array binding signal (z-score),[2],0.116
same,glycan array binding signal (z-score),[3],0.021
same,glycan array binding signal (z-score),Fuc(a1-2)Gal(b1-3)GlcNAc,0.926
same,glycan array binding signal (z-score),[4],0.723
same,glycan array binding signal (z-score),[5],0.862
same,glycan array binding signal (z-score),Fuc(a1-2)Gal(b1-4)Glc,1.23
same,glycan array binding signal (z-score),Fuc(a1-2)Gal(b1-4)GlcNAc,1.01
same,glycan array binding signal (z-score),[6],1.12
same,glycan array binding signal (z-score),[7],1.31
same,glycan array binding signal (z-score),[8],0.407
same,glycan array binding signal (z-score),[9],0.782
same,glycan array binding signal (z-score),[10],1
same,glycan array binding signal (z-score),Fuc(a1-2)GlcNAc,0.445
same,glycan array binding signal (z-score),Fuc(a1-2)[Gal(a1-3)]Gal,-0.241
same,glycan array binding signal (z-score),[11],-0.372
same,glycan array binding signal (z-score),[12],-0.316
same,glycan array binding signal (z-score),[13],-0.318
same,glycan array binding signal (z-score),[14],-0.301
same,glycan array binding signal (z-score),[15],-0.123
same,glycan array binding signal (z-score),[16],-0.265
same,glycan array binding signal (z-score),[17],-0.366
same,glycan array binding signal (z-score),[18],-0.306
same,glycan array binding signal (z-score),[19],-0.337
same,glycan array binding signal (z-score),[20],0.302
same,glycan array binding signal (z-score),[21],-0.142
same,glycan array binding signal (z-score),[22],-0.364
same,glycan array binding signal (z-score),Fuc(a1-3)GlcNAc,-0.121
